# In article PMC12057664, “High-resolution characterization of ex vivo AAT polymers by solution-state NMR spectroscopy” (Science Advances, 2025):
# B1: Z alpha-1-antitrypsin (E342K) polymers from explanted human liver (natural protein)
# chain: not shown
# notes: alpha-1-antitrypsin (AAT), human, Z variant (c.1096G>A, p.Glu366Lys); numbers count on: the mature protein; E342 is E366 on the precursor (p.Glu366Lys printed); Tissue-derived; also called Z AAT; liver-derived polymers
# Molecular target: the molecule itself
# Experiment: SEC + native gel or EMSA; Z AAT polymers extracted from explanted liver, separated by metal affinity, ion exchange and Superdex 200 Increase size exclusion; fractions on nondenaturing PAGE, ~4 μg per lane
protein,measurement,value
B1,stoichiometry N,2 and 3

# Values joined by “and” are separate entries in the source; they are usually repeats but may differ in a detail not shown here. Equal entries are not always repeated.
